The supplement of paper PMC11417369
Some of the results follow.

Test system: PfAP2-HC AP2 domain (GST-tagged)
Experiment: gcPBM binding intensity (ln(normalized median fluorescence intensity)); higher = stronger DNA binding
How it was run: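 DNA-binding domains from P. falciparum, fused to GST and produced in E. coli, were put on an Agilent 4 × 180k double-stranded probe array for 1 h in 1× PBS holding 1% milk, 0.2 mg/ml BSA, 0.5% salmon testes DNA and 0.03% Triton X-100. Probes were primer-extended, 36 bp long and drawn from intergenic genomic regions, with negative controls included. After Alexa488 anti-GST antibody detection and a 488 nm scan, binding intensity was set as the highest Masliner-normalised natural-log median intensity across replicate spots of either probe orientation.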

| Sequence | gcPBM binding intensity (ln) |
| --- | --- |
| TATTATATGAATAATTGTACGAAATTTAAAAGACAA [XGTACX_site7558] | 9.63 |
| CACAAATATATACATACACACATATATACGCATATA [CACACA_site395] | 10.2 |
| GGGGAGCTATCTCCTGCACACACAATTTTTTTTTTT [CACACA_site8703] | 9.99 |
| TGATTATCCTTCAGGAGTACATATAATATAATATAT [XGTACX_site1479] | 9.62 |
| AATGAAAAGAAATAATAAATAAATGATGACCAGCTG [GTGCAC_negctrl_site398] | 9.76 |
| ATATATATATGAATCACACACAAAAAATATAGAGAT [CACACA_site3913] | 10.4 |
| AAAAACAAAATTTGGAGTACAGTTATAATATTATTA [XGTACX_site5245] | 9.49 |
| TTATAAAGAAAAAATTGCTTTAAAAGAAAGATTACA [CACACA_negctrl_site960] | 9.23 |
| TTTTATGTTTATGTGGTGCATGTTTTGAAGAAAATA [GTGCAC_site9616] | 9.66 |
| TATAAACCGACGAAAACACACATATGTAAATATATA [CACACA_site491] | 9.95 |
| AAACCTATGTATATTATACACACTCCAAACTATTAT [CACACA_site8536] | 9.88 |
| ATTACCATATTTTGTACACACATCTTTATCTCAATA [CACACA_site3217] | 10.2 |
| TAAAAATTAAAGTGTACACATATATATATATATATA [CACACA_site4781] | 9.73 |
| TAAAATAATATATGGTGTACACAAAAGTATAAATAA [XGTACX_site4991] | 10 |
| AAAAAAATAATTAACACACACATGTATATCTATATA [CACACA_site3139] | 10.1 |
| ATATAAAAAAAATTTAGTACATATATATATATATAT [XGTACX_site8635] | 9.62 |
| TATATATATATATTATGTACTCATTTATTATCTTTT [XGTACX_site8051] | 9.91 |
| CGGGGGTAGTTTTATGCACACGTTTATTAATGCTTC [CACACA_site5717] | 10.1 |
| ACCAATAATATACATACACACATAAATGTTTATATA [CACACA_site4328] | 9.8 |
| ACATGAATATATACACGTACATATATACATATATAT [XGTACX_site5872] | 9.85 |
| TGAAAAACTATCAGAGTGCATATATAGCTCGATACA | 9.65 |
| TACATATATATAATATATATATCATCATATTTTCTT [XGTACX_negctrl_site478] | 9.74 |

| Sequence | gcPBM binding intensity (ln) |
| --- | --- |
| CTTAAACTTTTAAATACACACATACAGACATACACA [CACACA_site6401] | 10.5 |
| TTTACTTTTTTTATATATTATTTATTATATAATATA [CACACA_negctrl_site211] | 9.67 |
| TAAAAATGATCAAAGGGTACAGTATTAATTAAAAAA [XGTACX_site1079] | 9.69 |
| AATATACGATTGTCATTCATACATTGTTAACATAGT [CACACA_negctrl_site1151] | 9.6 |
| ATATACAGAAAAAATTAAAATAAATATGCAAAACAA [CACACA_negctrl_site704] | 9.84 |
| TACAATGAACATGAAACACACAAAAAAAAAAAAAAA [CACACA_site1544] | 9.53 |
| ACATAGTAAATATTATGTACATAATATATACATTTA [XGTACX_site7500] | 9.66 |
| TATTATAAATAAATAGAAAAAAAAATGATAAATGGA [CACACA_negctrl_site865] | 9.67 |
| TATTTAGACATAACAAATAGACTAACAAAAGATTTA [GTGCAC_negctrl_site614] | 9.51 |
| ATAATAAATACACTAGTGCAAAATAATATATGTACT [GTGCAC_site9707] | 10.1 |
| TTTATTTATATAATTACACACATATATACTCAAATG [CACACA_site5543] | 9.75 |
| ATATGTACTATACGCACACACACTCACATATTTATA [CACACA_site7510] | 10.7 |
| TTCTTAATTCATACCATCAAAACATTTATTCATATC [CACACA_negctrl_site43] | 9.57 |
| ATAGGGTTTCTACTTTAACATTTTTGAAATATTATA [GTGCAC_negctrl_site260] | 9.52 |
| AATATATACACATGCGCACACACAAGTGGGAAATTT [CACACA_site8527] | 10.2 |
| AAATGTGTTAATGTGCGTACACATATATATAATATT [XGTACX_site2792] | 9.79 |
| ATCACTAATTTTTTTACACACCACAATTTAATTTTT [CACACA_site1186] | 9.94 |
| TCATTTAAGTCATATTGAAATATGCATTATTCAAAA [CACACA_negctrl_site958] | 9.36 |
| TTTTGCCTGAACAATGCATGTTATTTTTATTTTTTT [TGCATGCA_site673] | 9.75 |
| TTTATATTTCATTTGTTATTTTTCTTGGTTCTATAT [TGCATGCA_negctrl_site23] | 9.66 |
| TTTTTTTTTTTTTTTTTTATATTTCATAATTTCATT [XGTACX_negctrl_site579] | 9.15 |
| TACACAAAAATAAACACACACACATATATATATATA [CACACA_site1000] | 10.2 |

| Sequence | gcPBM binding intensity (ln) |
| --- | --- |
| TATATATTCCTCCATAGTACAATAATAAAGATAAAA [XGTACX_site5785] | 9.61 |
| ACCAATTTGACAAACTGTACAAAAAAAATATTAAAA [XGTACX_site1186] | 9.5 |
| AACACCCAAAAACACACACACATACATACATACATA [CACACA_site4411] | 10.3 |
| AACATTAATTTCCTATGTACTTAATATATTGTTTTT [XGTACX_site4440] | 9.81 |
| ATTTATATATATGTATGTACGTATGTGTGTATATGT [XGTACX_site7587] | 10.2 |
| CTTTCCCTATATTGCTGTACATGTATTCAAAAAACA [XGTACX_site353] | 9.58 |
| CGCGAACATACATACACACACATATATATATCTGTA [CACACA_site4277] | 10.2 |
| TTATGTATATTATAAATTAATACCTTTAAATTAATA [CACACA_negctrl_site67] | 9.18 |
| ATAATCCTGAAACACACACACACACCCATAAATAAA [CACACA_site481] | 11.1 |
| TATAACTTATTTTTTAGTACATATTATAGTTCATTT [XGTACX_site8649] | 9.65 |
| TATATATACTTAGAAACACACAAAAATATTTTATAA [CACACA_site2578] | 9.67 |
| TAATTAGTTTTTACTTTTTTTTTTTTTTTTCTATAT [CACACA_negctrl_site1024] | 9.44 |
| ATAAAAAGCTAAAAAGTGCAAAAAGTAAATATTTAA | 10.1 |
| TTTTATAAAGAACACAGACACACAAAGAAAGAACCA [CACACA_site4174] | 10.2 |
| TAAAAGGAGACATATACACACATATATATATATATA [CACACA_site5539] | 9.9 |
| ATTCCTCATTAATATTCTTATTTTTTAATTCACATT [XGTACX_negctrl_site329] | 9.96 |
| TTTATTTAAAATAAGTGTACTAGAAAAATTAAGCAG [XGTACX_site4982] | 9.52 |
| TGTGATTATGATAAAAGTACAGAAATAAATATACTA [XGTACX_site38] | 9.63 |
| ATGTATGTTTGTTATGCACACAAATGCATCTTATTT [CACACA_site8861] | 10.2 |
| ATAATGAACAATATTATATATAAAATATAATTTATA [GTGCAC_negctrl_site564] | 9.56 |
| ATTATGTATACATAAACACACATATATATAAAAAAA [CACACA_site262] | 9.88 |
| GAGAAATGGGGACACACACACATATTATATATATAT [CACACA_site4943] | 10.4 |

| Sequence | gcPBM binding intensity (ln) |
| --- | --- |
| TATATATATCTGTACACACACACATATAAATAAATA [CACACA_site4405] | 10.2 |
| AAGCACAAAAAATACACACACAAAAAATAAAAAAAG [CACACA_site1840] | 10.5 |
| TATATGCATAATAACTGTACACAAATTGGGGTTGAT [XGTACX_site459] | 9.92 |
| ATATAAATATATGTATGTACGCATGTATGTATCTAT [XGTACX_site3290] | 9.85 |
| TTTTAATTTATTTATGCACACATATATAATTACACA [CACACA_site8126] | 9.79 |
| AAAAATAAACAATATATAGTTATATATATATATATA [TGCATGCA_negctrl_site82] | 9.71 |
| ATTATATATATGTGCACACAAAAGATATATATATAT [CACACA_site5205] | 10.1 |
| AAATAATTTACTTAATGTACATATATATATATATAT [XGTACX_site8594] | 9.78 |
| ATATTTATTTGTTAGTGTACATACATATATATATAT [XGTACX_site1347] | 9.89 |
| TTTTCTATGCTAAACACACTCATTGTTACAAGTTTT [CACACA_site5531] | 9.76 |
| TATATATATTTTATATGTACGTATGGAACAATATGA [XGTACX_site8167] | 9.54 |
| TTATTTATTTTTTATACACACAATTATCATTTTAAG [CACACA_site22] | 9.74 |
| TGTTGTAAATTAAAGACATGCACGTGAGAAAATATA [TGCATGCA_site285] | 10 |
| AATTATATACATAAGTGTACATAATATATAAACATA [XGTACX_site793] | 9.77 |
| TTTTCAATTAATAATACACACATGTATTTATTATTA [CACACA_site5774] | 9.77 |
| TTAATTAGAAATCATACACACATATAAATAAATATA [CACACA_site6225] | 9.76 |
| TATTTGTTTGTTCGGGTGCTTACATATATTCTTATA [GTGCAC_site9972] | 9.89 |
| TGTGCCTATAAATTAACACACAGAAATATATAGAGA [CACACA_site818] | 9.73 |
| TTATTCTGACAGAATTGTACTAATGTCTTTAAAAAA [XGTACX_site1256] | 9.06 |
| TATACTAAGAAGTATTTACACACCAACAAGGCGAAA [CACACA_site8963] | 9.73 |
| TAAGTTTATTGAAATTGTACAAACATAAATGTAAAA [XGTACX_site162] | 9.65 |
| TTATATTTTTTTTTTTCACACACATTTATATTGTAT [CACACA_site9025] | 10.2 |
